Assay results as given in PubChem BioAssay AID488969 (Vanderbilt High Throughput Screening Facility, 2010).
The full ranking holds about 110,000 compounds; the median of “z-score” is about -0.1, and the highest 2% start at about 2. This is one part of the list. Active and inactive are the calls of the source.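 The calls were made as follows: active = z-score in the third read window above 3 or below -3; inactive = the rest.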

molecular target: Metabotropic glutamate receptor 8 (Rattus norvegicus) (UniProt P70579); test: rat mGluR8 modulators via GIRK flux, primary screen, cell-based, thallium flux, HTS (AID 488969); conditions: HEK293 rat mGluR8, GIRK (G protein-gated inwardly rectifying potassium channel) thallium flux, FluoZin2; at 10 µM; stronger effect = higher value; submaximal glutamate (EC20) added with thallium
UniProt P70579, sequence (P70579 whole entry, looked up): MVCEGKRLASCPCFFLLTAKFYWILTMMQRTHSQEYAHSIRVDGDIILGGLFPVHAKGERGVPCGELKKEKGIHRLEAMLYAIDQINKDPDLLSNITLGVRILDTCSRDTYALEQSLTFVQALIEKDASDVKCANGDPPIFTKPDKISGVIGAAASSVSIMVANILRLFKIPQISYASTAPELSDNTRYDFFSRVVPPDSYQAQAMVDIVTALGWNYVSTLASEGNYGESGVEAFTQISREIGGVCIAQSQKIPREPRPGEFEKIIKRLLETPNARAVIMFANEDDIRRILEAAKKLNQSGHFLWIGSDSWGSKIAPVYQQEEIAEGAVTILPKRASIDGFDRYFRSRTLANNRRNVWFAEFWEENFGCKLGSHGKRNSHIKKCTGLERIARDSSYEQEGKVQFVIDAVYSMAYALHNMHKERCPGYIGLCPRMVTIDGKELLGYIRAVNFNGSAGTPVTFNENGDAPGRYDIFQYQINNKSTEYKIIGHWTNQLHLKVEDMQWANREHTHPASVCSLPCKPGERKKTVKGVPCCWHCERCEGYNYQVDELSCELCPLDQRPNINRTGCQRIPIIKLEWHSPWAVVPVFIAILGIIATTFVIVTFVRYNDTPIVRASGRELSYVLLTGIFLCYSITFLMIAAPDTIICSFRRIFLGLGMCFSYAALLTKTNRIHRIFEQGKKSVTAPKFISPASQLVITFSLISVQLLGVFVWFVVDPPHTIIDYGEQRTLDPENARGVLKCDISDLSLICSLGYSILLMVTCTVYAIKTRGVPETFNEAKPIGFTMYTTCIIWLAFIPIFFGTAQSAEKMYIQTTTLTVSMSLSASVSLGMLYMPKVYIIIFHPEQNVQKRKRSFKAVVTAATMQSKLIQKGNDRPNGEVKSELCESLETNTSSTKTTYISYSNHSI

| SMILES | z-score |
| --- | --- |
| COc1ccc(C(=O)Nc2ccccc2Cc2ccccc2)c(OC)c1 | -0.617 |
| COc1ccc(C(=O)Nc2ccc(C(=O)Nc3nccs3)cc2)cc1[N+](=O)[O-] | -0.195 |
| O=C(Nc1ccn(Cc2c(F)c(F)cc(F)c2F)n1)c1ccc(COc2ccc(Cl)cc2Cl)o1 | -0.0609 |
| Cc1ccccc1-c1cc2c(nn1)-c1ccccc1C2=O | -0.0468 |
| CC(C)CC(NS(=O)(=O)c1ccccc1)C(=O)O (centres undefined) | -0.399 |
| Cc1cc(C)n(C(=O)CNc2cccc(Cl)c2C)n1 | -0.289 |
| O=C(NC(=S)Nc1ccccn1)c1ccco1 | 1.2 |
| O=C(NCc1ccc2c(c1)OCO2)c1ccc(CSCc2cccc(Cl)c2)o1 | -0.393 |
| CN(c1ccc(C(=O)N2CCN(c3ccc(F)cc3)CC2)cc1)S(C)(=O)=O | -0.252 |
| Cc1ccccc1-n1c(C)cc(/C=N/NC(=O)c2ccc(CN3CCOCC3)cc2)c1C | -0.392 |
| O=C(CCSc1nc(-c2ccco2)cc(C(F)(F)F)n1)NCCc1ccccc1 | -1.05 |
| Cc1ccc(-c2c[n+](CC(=O)N3c4ccccc4Sc4ccccc43)c3n2CCC3)cc1 | -0.236 |
| O=C(c1ccc(Cn2c(=O)[nH]c3ccccc3c2=O)cc1)N1CCN(c2ccc(Cl)cc2)CC1 | -0.127 |
| CCc1nc2oc3ccccc3c(=O)c2c(=O)n1Cc1ccccc1 | -0.473 |
| O=C(CCCC(=O)N(c1ccc2c(c1)OCCO2)C(C(=O)NC1CCCCC1)c1ccc(F)cc1)Nc1ccccn1 (centres undefined) | 0.035 |
| Cc1ccc(CN2CCN(/N=C/c3ccc(C(F)(F)F)cc3)CC2)c(C)c1 | -0.0788 |
| CCOc1ccc(N(CC(=O)NCc2ccco2)S(C)(=O)=O)cc1 | 0.0426 |
| Cc1ccc(C(c2sc3ncnn3c2O)N2CC(C)CC(C)C2)cc1 (centres undefined) | -0.254 |
| O=C(Nc1ccc(S(=O)(=O)N2CCCC2)cc1)c1ccc(CN2CCc3ccccc3C2)cc1 | 0.383 |
| O=C(Nc1nc2c(s1)CCCC2)C1COc2ccccc2O1 (centres undefined) | -0.35 |
| Cc1ccc(OCCn2c(CCCO)nc3ccccc32)cc1 | -1.36 |
| Clc1ccc(C2CC(c3ccco3)n3ncnc3N2)cc1Cl (centres undefined) | -0.108 |
| Cc1ccc(-n2c(SCC(=O)N/N=C/c3ccc(C)s3)nnc2-c2ccccc2)cc1 | -0.987 |
| Cc1nc2c(-c3ccc(F)cc3)c(C)nn2c(C)c1CCC(=O)N1CCN(c2ccccc2)CC1 | -0.81 |
| Cc1ccc(OCCCN2CCCC2)c(C)c1 | 0.132 |
| CC(C)n1c(NCc2cccs2)nc2ccccc21 | 0.0512 |
| O=C(NCc1ccccc1)C(=O)Nc1nc(C23CC4CC(CC(C4)C2)C3)cs1 | active: 3.44 |

| SMILES | z-score |
| --- | --- |
| O=C1c2cc([N+](=O)[O-])cc3cc([N+](=O)[O-])cc(c23)C(=O)N1c1ccccn1 | -0.0109 |
| Cn1c(C(=O)N(Cc2ccccc2)Cc2ccccn2)cc2sccc21 | -1.21 |
| Cc1cccc(-n2c(SCC(=O)NCc3ccco3)nc3ccccc3c2=O)c1 | -0.748 |
| Cn1cnc([N+](=O)[O-])c1Oc1cccc2ccccc12 | -0.093 |
| COc1ccccc1N1CCN(c2cc(=O)n(Cc3ccc(F)cc3)c(=O)[nH]2)CC1 | 0.024 |
| CCCn1c(NC(=O)C2COc3ccccc3O2)nc2ccccc21 (centres undefined) | 0.521 |
| CC(C)(C)NC(=S)NCc1cccnc1 | 0.234 |
| O=C(NCCc1ccccc1)c1ccc(-n2cnnn2)cc1 | 0.717 |
| CC(=O)NS(=O)(=O)c1ccc(N=c2ssc3c2-c2cc(C)c(C)cc2NC3(C)C)cc1 | 0.114 |
| CCCOc1ccc(-c2nnn(CC(=O)c3c[nH]c4ccccc34)n2)cc1 | -0.0617 |
| Cc1cc2cc(C)c3nnc(SCC(=O)Nc4ccc(S(=O)(=O)N5CCCCC5C)cc4)n3c2cc1C (centres undefined) | -0.264 |
| CC(=O)N(c1nc(CCl)cs1)c1c(C)cc(C)cc1C | 1.43 |
| O=C(OCc1c(Cl)cccc1Cl)c1ccncc1 | -0.266 |
| COc1ccc(/C=N/NC(=O)CSc2nnc(CCCc3ccc(OC)c(C)c3)o2)cc1 | -0.18 |
| c1coc(CNc2nc(-c3ccncc3)cs2)c1 | -0.199 |
| O=C(Nc1nc2n(n1)C(c1ccccc1)CC(c1ccc(Cl)cc1)N2)c1ccco1 (centres undefined) | -1.52 |
| O=C(c1ccc(Cl)c(S(=O)(=O)N2CCc3ccccc3C2)c1)N1CCN(c2ccccc2)CC1 | -0.0565 |
| O=C(Cn1c(=S)[nH]c2ccccc21)c1ccccc1 | -0.531 |
| O=C(NNC(=O)c1cc(-c2ccc(Cl)cc2Cl)nc2ccccc12)Nc1ccccc1 | -0.0621 |
| S=C(NCc1ccncc1)Nc1ccc(Cl)cc1 | 0.311 |
| OC(CN1C2=NCCCN2c2ccccc21)c1ccc(Cl)cc1 (centres undefined) | 0.782 |
| Cc1cccc(-c2nnc(SCC#N)n2-c2ccccc2)c1 | -0.239 |
| Cc1ccc2oc(=O)c3cnn(CC(=O)N4CCN(c5ccccn5)CC4)c3c2c1 | -0.87 |
| Cc1cccc(S(=O)(=O)Nc2nc3ccccc3nc2NCc2ccc3c(c2)OCO3)c1 | -0.402 |
| COc1cc(/C=N/Nc2cccc(C)c2)ccc1OC(=O)c1ccco1 | -1.01 |
| CC(=O)NS(=O)(=O)c1ccc(N=NN2CCCCC2)cc1 | 0.395 |
| C=Cn1c(N2CCOCC2)nc2c1c(=O)[nH]c(=O)n2C | 0.39 |
